Assay results reported in PubChem BioAssay AID1956 (SRMLSC, 2009).
The list shows a part of the results. Shown are side measurements of this screen, not its main read-out; they come without a call.

Assay: compounds boosting herpes simplex virus growth – fold increase, host cell viability (AID 1956); further: tested in PC3 cells
Details: HSV replication augmentation in cells; fold increase: measured here: primary screen fold increase 10 uM, at 10 µM, stronger effect = higher value; viability: measured here: host cell viability series, at 25 µM, stronger effect = lower value
`CC(C)(C)C1c2[nH]c3ccccc3c2CCN1Cc1cccc(OCCO)c1` (stereo unspecified) showed a fold increase of 1.55 and a viability of 96.2%.
`COCCNC(=O)/C(C#N)=C/c1ccc(N2CCOCC2)o1` gave a fold increase of 1.53 and a viability of 92%.
`COc1cc(C2C(C#N)=C(N)Oc3cc(N(C)C)ccc32)cc2c1OCO2` (stereo unspecified) showed a fold increase of 1.5 and a viability of 45.5%.
With `COCc1ccc(C(=O)N2CCCC(C(=O)c3cc(F)ccc3F)C2)s1` (stereo unspecified) the fold increase was 1.37 and the viability was 94.2%.
For `O=C(c1ccco1)N1CCN(CC(=O)N2CCCc3c2c(=O)oc2ccc(O)cc32)CC1`, the fold increase was 1.5 and the viability was 92.3%.
In the case of `O=C(NCc1ccccn1)C1CCCN(S(=O)(=O)c2ccccc2)C1` (stereo unspecified), the fold increase is reported as 1.36 and the viability is reported as 101%.
Compound `O=c1[nH]c2ccccc2nc1/C=C/c1ccc(O)cc1` has a fold increase of 1.64 and a viability of 79.4%.
In the case of `S=c1nc(C2CC2)[nH]c2ccccc12`, the fold increase is reported as 1.24.
`O=C1c2ccccc2S(=O)(=O)c2cc(N3CCC(C(=O)N4CCCCC4)CC3)ccc21` gave a fold increase of 1.33 and a viability of 93%.
`COC(=O)N/N=C/c1cc(N=Nc2ccccc2Cl)ccc1O` showed a fold increase of 1.54 and a viability of 89.7%.
Work on `C=CCN=C(NC#N)SCCc1ccccc1` yielded a fold increase of 1.34 and a viability of 95.1%.
Compound `Cc1nn(-c2ccccc2)c(C)c1NC(=O)COc1ccc2ccccc2c1` has a fold increase of 1.34 and a viability of 89.7%.
`CS(=O)(=O)Oc1ccc2c(c1)O/C(=C\C=C\c1ccccc1)C2=O` gave a fold increase of 5.77 and a viability of 79.5%.
In the case of `CC(C)C[C@@H]1NC(=O)[C@H](CO)NC(=O)c2cc([N+](=O)[O-])cc(I)c2OCC[C@@H](C(N)=O)NC1=O`, the fold increase is reported as 1.35 and the viability is reported as 95.2%.
Work on `Cc1cccc(S(=O)(=O)Nc2cccc3c2C(=O)c2ccccc2-3)c1` yielded a fold increase of 1.41 and a viability of 102%.
In the case of `CC(Cc1ccccc1)NC(=S)CN1CCCC1=S` (stereo unspecified), the fold increase is reported as 1.57 and the viability is reported as 101%.
Compound `CCCCc1nc2ccccc2c(NC(=O)CN2CCCC2)c1CCC` has a fold increase of 1.34 and a viability of 86.9%.
`Cc1ccc2[nH]c3c(c2c1)CN(C(=O)CN1CC(C)OC(C)C1)CC3` (stereo unspecified) showed a fold increase of 1.73 and a viability of 94.8%.
`Cc1ccccc1NC(=O)/C=C/c1ccc([N+](=O)[O-])s1` showed a fold increase of 4.7 and a viability of 53.2%.
`Nc1cccn2c(-c3ccc(Cl)c(Cl)c3)cnc12` showed a fold increase of 1.51 and a viability of 89.2%.
For `CC(=O)c1sc2nc(CSc3nnnn3-c3ccccc3)[nH]c(=O)c2c1C`, the fold increase was 1.38.
`Oc1ccc(N=Nc2cccc(C(F)(F)F)c2)cc1C=Nc1ccc(N2CCOCC2)cc1` showed a fold increase of 1.56 and a viability of 40.6%.
`CCOc1cc(/C=N/NC(=O)Cn2nc([N+](=O)[O-])cc2C)ccc1OCc1ccc(F)cc1` gave a fold increase of 1.25.
Work on `CCN1C(=O)/C(=C/C=C2\C=CN(CC)c3ccccc32)SC1=S` yielded a fold increase of 1.68 and a viability of 74.6%.
`CC1C/C(=C/c2cccn2C)C(=O)/C(=C/c2cccn2C)C1` (stereo unspecified) showed a fold increase of 4.6 and a viability of 75.3%.
In the case of `CC1(c2ccccc2)CC(C)(C)N2C(=O)/C(=C3\SC(=S)NC3=O)c3cccc1c32` (stereo unspecified), the fold increase is reported as 1.34 and the viability is reported as 81.7%.
Work on `N#CC(C#N)=C1C=C2C=C(N3CCCCC3)CCC2CC1` (stereo unspecified) yielded a fold increase of 7.32 and a viability of 95.6%.
With `c1cncc(-c2nc3ccccc3o2)c1` the fold increase was 1.4 and the viability was 103%.
`Cc1cccc(-n2c(CNC(=O)c3ccc(S(=O)(=O)N4CCCC4)cc3)n[nH]c2=S)c1` showed a fold increase of 1.41 and a viability of 103%.
Compound `CCOc1ccc(CN(C)CC(=O)NNC(=O)c2ccc(Cl)cc2)cc1OC` has a fold increase of 1.33 and a viability of 101%.
With `COc1cccc(NC(=O)CSc2nnc(-c3ccoc3C)n2-c2ccccc2)c1` the fold increase was 1.14.
Compound `Cc1cccc(N=C2NC(=O)/C(=C/c3cccn3C)S2)c1C` has a fold increase of 1.33 and a viability of 77.7%.
For `CCCOC(=O)CSC1=C(C#N)C(c2ccccc2OCC)C(C#N)C(=O)N1` (stereo unspecified), the fold increase was 1.23.
For `O=C(NCc1cccs1)c1nc2c(nnn2Cc2ccc(F)cc2)c(=O)[nH]1`, the fold increase was 1.37 and the viability was 95.9%.
`O=C1/C(=C/c2ccco2)Oc2c1ccc(O)c2CN1CCCCC1` gave a fold increase of 1.37 and a viability of 95.6%.
`O=c1[nH]c(-[n+]2ccccc2)c(/C=N/NC([S-])=Nc2ccccc2)s1` gave a fold increase of 1.92 and a viability of 98.6%.
`CCN(CC)C(=O)CSC(=Nc1ccccc1F)NC#N` showed a fold increase of 1.42 and a viability of 102%.
Work on `Nc1ccccc1Nc1cc(-c2cccc(Cl)c2)nn1-c1ccccc1` yielded a fold increase of 1.41 and a viability of 91.5%.
Compound `CCCc1cc(C(=O)NNC(=S)NCC2CCCO2)cs1` (stereo unspecified) has a fold increase of 1.46 and a viability of 98.3%.
With `CC(C)Oc1ccc(C(=O)N/N=C/c2ccc(-c3ccc(S(=O)(=O)Nc4ncccn4)cc3)o2)cc1` the fold increase was 1.12.
`CCc1nn(CC(=O)NCCCN2CCCC2=O)c(=O)c2cc3sccc3n12` showed a fold increase of 1.35 and a viability of 99.3%.
`CCCCOc1[nH]c2nc(-c3ccco3)n(Cc3ccco3)c(=N)c2c1C#N` gave a fold increase of 2.21 and a viability of 79.8%.
With `COC(=O)c1ccccc1COn1c(=O)c[n+]([O-])c2ccccc21` the fold increase was 1.43 and the viability was 92.7%.
Compound `CCN1CCN(C(=O)c2cc3c(=O)n(C)c4ccccc4c3n2C)CC1` has a fold increase of 1.32 and a viability of 96%.
For `C#CCSc1nnnn1-c1cccc(Cl)c1`, the fold increase was 1.36 and the viability was 81.2%.
`COc1ccc(NC(=O)/C(C#N)=C\c2ccc(N3CCOCC3)o2)cc1` gave a fold increase of 7.87 and a viability of 89.7%.
